9 molecules from the antibiotic and cytotoxicity screens of Wong et al. (2023) can be followed below.

This is one part of the list.

For one experiment, the system named is HSkMC. As to the kind of experiment: cytotoxicity call (relative viability < 0.9). The conditions noted are these: 10 µM.
A further experiment has as its system HepG2. The experiment in a line: cytotoxicity call (relative viability < 0.9). The conditions noted are these: 10 µM.
A further experiment concerns S. aureus RN4220. As to the kind of experiment: growth inhibition call (relative growth <= 0.2). As to conditions: 50 µM.

Regarding `C[C@H]1CCCCO[C@@H](CN(C)Cc2ccncc2)[C@@H](C)CN([C@@H](C)CO)C(=O)c2cc(NC(=O)C3CCCCC3)ccc2O1`, the cytotoxicity call in the experiment with HSkMC and in the experiment with HepG2 was “inactive” throughout. In addition, in the experiment with S. aureus RN4220, the growth inhibition call was “inactive”.

As for `CN1CCCN(C[C@@]2(O)CCNC2)CC1`, the cytotoxicity call in the experiment on HSkMC and in the experiment on HepG2 was “inactive” each time. In addition, the growth inhibition call in the experiment on S. aureus RN4220 is “inactive”.

As for `C[C@@H]1CN([C@@H](C)CO)C(=O)c2cc(NS(=O)(=O)c3cccs3)ccc2O[C@@H](C)CCCCO[C@H]1CN(C)Cc1ccccc1`, the cytotoxicity call in the experiment with HSkMC was “inactive”. Moreover, the cytotoxicity call in the experiment with HepG2 was “active”. In addition, the growth inhibition call in the experiment on S. aureus RN4220 is “inactive”.

As to `COc1ccc(S(=O)(=O)Nc2ccc3c(c2)[C@@H]2C[C@H](CC(=O)NCC4CC4)O[C@H](CO)[C@@H]2O3)cc1`, the cytotoxicity call in the experiment on HSkMC and in the experiment on HepG2 was “inactive” throughout. Further, in the experiment with S. aureus RN4220, the growth inhibition call is “inactive”.

For the molecule `C[C@@H]1CCCCO[C@@H](CN(C)S(=O)(=O)c2ccc(F)cc2)[C@@H](C)CN([C@@H](C)CO)C(=O)c2cc(NC(=O)Nc3ccc(F)cc3)ccc2O1`, the cytotoxicity call in the experiment on HSkMC (human skeletal muscle cells) is “inactive”. Further, the cytotoxicity call with HepG2 is “active”. Further, in the experiment on S. aureus RN4220, the growth inhibition call was “inactive”.

`CC(C)NC(=O)N(C)C[C@@H]1Oc2c(NS(=O)(=O)c3cn(C)cn3)cccc2C(=O)N([C@H](C)CO)C[C@H]1C`: the cytotoxicity call in the experiment with HSkMC and in the experiment on HepG2 was “inactive” each time. Besides, the growth inhibition call with S. aureus RN4220 was “inactive”.

Take `CNC[C@H]1OCCCC[C@@H](C)Oc2ccc(NC(=O)c3ccncc3)cc2C(=O)N([C@H](C)CO)C[C@@H]1C`: the cytotoxicity call with HSkMC and with HepG2 was “inactive” throughout. In addition, the growth inhibition call with S. aureus RN4220 was “inactive”.

In the case of `CNC[C@@H]1Oc2ccc(NS(=O)(=O)c3cn(C)cn3)cc2C(=O)N([C@H](C)CO)C[C@H]1C`, the cytotoxicity call in the experiment with HSkMC and in the experiment on HepG2 was “inactive” in each case. For the same molecule, in the experiment with S. aureus RN4220, the growth inhibition call was “inactive”.

As to `C[C@@H]1CN([C@H](C)CO)C(=O)Cc2cc(NC(=O)Nc3ccccc3)ccc2O[C@@H]1CN(C)C(=O)Nc1cccc2ccccc12`, the cytotoxicity call in the experiment with HSkMC and in the experiment on HepG2 was “inactive” in each case. Further, in the experiment with S. aureus RN4220, the growth inhibition call is “inactive”.
